Some of the results follow. The list includes weakly bound sequences.

The assay concerns the target T1, MBP-FoxP3dN (UniProt Q99JB6).
T1 sequence: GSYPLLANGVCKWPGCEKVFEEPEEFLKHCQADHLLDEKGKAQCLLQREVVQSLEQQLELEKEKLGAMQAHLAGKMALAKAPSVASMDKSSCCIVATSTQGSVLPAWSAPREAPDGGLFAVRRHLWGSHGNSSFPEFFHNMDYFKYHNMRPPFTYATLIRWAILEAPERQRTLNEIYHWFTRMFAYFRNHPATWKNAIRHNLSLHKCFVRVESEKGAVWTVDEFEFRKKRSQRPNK
The experiment in a line: PD-seq (MBP pull-down with sequencing). Conditions: 20 mM Tris-HCl pH 7.5, 100 mM NaCl, 1.5 mM MgCl2, 0.4 uM protein, 0.1 uM dsDNA library, 30 min, room temperature, amylose pull-down; high values mean tight binding; double strand, one strand shown.
In the case of “GATGATTGTTCTCCCAGCTGATGAATTCAGCACGTCGAGTAAACAAATTTTCCTAATCTTTCTGTTCAAGCGCCATCTAC”, the binding signal (RPM ratio (pull-down/input)) stood at 1.04.

As to “GATGATTGTTCTCCCAGCTGATGAATTGTGACGCTCGAGTAAACAAATTTTCCTAATCTTTCTGTTCAAGCGCCATCTAC”, the binding signal (RPM ratio (pull-down/input)) came to 0.892.

“GATGATTGTTCTCCCAGCTGATGAATTCAAAAGTTCGAGTAAACAAATTTTCCTAATCTTTCTGTTCAAGCGCCATCTAC”: the binding signal (RPM ratio (pull-down/input)) worked out at 0.188.

In the case of “GATGATTGTTCTCCCAGCTGATGAATTAGTGCAATCGAGTAAACAAATTTTCCTAATCTTTCTGTTCAAGCGCCATCTAC”, the binding signal (RPM ratio (pull-down/input)) amounted to 4.39.

As for “GATGATTGTTCTCCCAGCTGATGAATTGCACTATTCGAGTAAACAAATTTTCCTAATCTTTCTGTTCAAGCGCCATCTAC”, the binding signal (RPM ratio (pull-down/input)) turned out to be 1.07.

“GATGATTGTTCTCCCAGCTGATGAATTCCCGACTTCGAGTAAACAAATTTTCCTAATCTTTCTGTTCAAGCGCCATCTAC”: the binding signal (RPM ratio (pull-down/input)) amounted to 0.448.

With “GATGATTGTTCTCCCAGCTGATGAATTGTCCTATTCGAGTAAACAAATTTTCCTAATCTTTCTGTTCAAGCGCCATCTAC”, the binding signal (RPM ratio (pull-down/input)) stood at 0.45.

As for “GATGATTGTTCTCCCAGCTGATGAATTAAACGTATCGAGTAAACAAATTTTCCTAATCTTTCTGTTCAAGCGCCATCTAC”, the binding signal (RPM ratio (pull-down/input)) was found to be 0.564.

Regarding “GATGATTGTTCTCCCAGCTGATGAATTATTAACCTCGAGTAAACAAATTTTCCTAATCTTTCTGTTCAAGCGCCATCTAC”, the binding signal (RPM ratio (pull-down/input)) stood at 0.365.

Turning to “GATGATTGTTCTCCCAGCTGATGAATTGCAAACCTCGAGTAAACAAATTTTCCTAATCTTTCTGTTCAAGCGCCATCTAC”, the binding signal (RPM ratio (pull-down/input)) amounted to 0.69.

Turning to “GATGATTGTTCTCCCAGCTGATGAATTACGTCAGTCGAGTAAACAAATTTTCCTAATCTTTCTGTTCAAGCGCCATCTAC”, the binding signal (RPM ratio (pull-down/input)) is 0.506.

Turning to “GATGATTGTTCTCCCAGCTGATGAATTAGGATGCTCGAGTAAACAAATTTTCCTAATCTTTCTGTTCAAGCGCCATCTAC”, the binding signal (RPM ratio (pull-down/input)) was 1.14.

As to “GATGATTGTTCTCCCAGCTGATGAATTCCTAGGGTCGAGTAAACAAATTTTCCTAATCTTTCTGTTCAAGCGCCATCTAC”, the binding signal (RPM ratio (pull-down/input)) was 0.185.

For the sequence “GATGATTGTTCTCCCAGCTGATGAATTATCTGCTTCGAGTAAACAAATTTTCCTAATCTTTCTGTTCAAGCGCCATCTAC”, the binding signal (RPM ratio (pull-down/input)) was found to be 0.299.

For the sequence “GATGATTGTTCTCCCAGCTGATGAATTCAGGCCGTCGAGTAAACAAATTTTCCTAATCTTTCTGTTCAAGCGCCATCTAC”, the binding signal (RPM ratio (pull-down/input)) is 0.452.

For “GATGATTGTTCTCCCAGCTGATGAATTCTAGCGGTCGAGTAAACAAATTTTCCTAATCTTTCTGTTCAAGCGCCATCTAC”, the binding signal (RPM ratio (pull-down/input)) worked out at 0.331.

Consider “GATGATTGTTCTCCCAGCTGATGAATTGCTACAATCGAGTAAACAAATTTTCCTAATCTTTCTGTTCAAGCGCCATCTAC”, for which the binding signal (RPM ratio (pull-down/input)) turned out to be 0.922.

As to “GATGATTGTTCTCCCAGCTGATGAATTCGTCACGTCGAGTAAACAAATTTTCCTAATCTTTCTGTTCAAGCGCCATCTAC”, the binding signal (RPM ratio (pull-down/input)) came to 1.77.

As to “GATGATTGTTCTCCCAGCTGATGAATTCACTCTCTCGAGTAAACAAATTTTCCTAATCTTTCTGTTCAAGCGCCATCTAC”, the binding signal (RPM ratio (pull-down/input)) came to 0.325.

As for “GATGATTGTTCTCCCAGCTGATGAATTCGACGAATCGAGTAAACAAATTTTCCTAATCTTTCTGTTCAAGCGCCATCTAC”, the binding signal (RPM ratio (pull-down/input)) turned out to be 0.208.

Turning to “GATGATTGTTCTCCCAGCTGATGAATTGCAGTGGTCGAGTAAACAAATTTTCCTAATCTTTCTGTTCAAGCGCCATCTAC”, the binding signal (RPM ratio (pull-down/input)) was determined as 0.85.

On to “GATGATTGTTCTCCCAGCTGATGAATTTTGCTTTTCGAGTAAACAAATTTTCCTAATCTTTCTGTTCAAGCGCCATCTAC”, for which the binding signal (RPM ratio (pull-down/input)) turned out to be 4.96.

On to “GATGATTGTTCTCCCAGCTGATGAATTCTGTCGCTCGAGTAAACAAATTTTCCTAATCTTTCTGTTCAAGCGCCATCTAC”, for which the binding signal (RPM ratio (pull-down/input)) turned out to be 0.926.

Regarding “GATGATTGTTCTCCCAGCTGATGAATTTGTTTTCTCGAGTAAACAAATTTTCCTAATCTTTCTGTTCAAGCGCCATCTAC”, the binding signal (RPM ratio (pull-down/input)) came out at 7.21.

For the sequence “GATGATTGTTCTCCCAGCTGATGAATTATGTAGTTCGAGTAAACAAATTTTCCTAATCTTTCTGTTCAAGCGCCATCTAC”, the binding signal (RPM ratio (pull-down/input)) turned out to be 3.34.

Regarding “GATGATTGTTCTCCCAGCTGATGAATTTTTCTCGTCGAGTAAACAAATTTTCCTAATCTTTCTGTTCAAGCGCCATCTAC”, the binding signal (RPM ratio (pull-down/input)) worked out at 0.232.

Turning to “GATGATTGTTCTCCCAGCTGATGAATTCTCCTAGTCGAGTAAACAAATTTTCCTAATCTTTCTGTTCAAGCGCCATCTAC”, the binding signal (RPM ratio (pull-down/input)) stood at 0.164.

For the sequence “GATGATTGTTCTCCCAGCTGATGAATTTCCTCATTCGAGTAAACAAATTTTCCTAATCTTTCTGTTCAAGCGCCATCTAC”, the binding signal (RPM ratio (pull-down/input)) stood at 0.295.

In the case of “GATGATTGTTCTCCCAGCTGATGAATTGTCCTGCTCGAGTAAACAAATTTTCCTAATCTTTCTGTTCAAGCGCCATCTAC”, the binding signal (RPM ratio (pull-down/input)) amounted to 0.341.

With “GATGATTGTTCTCCCAGCTGATGAATTTATGTCCTCGAGTAAACAAATTTTCCTAATCTTTCTGTTCAAGCGCCATCTAC”, the binding signal (RPM ratio (pull-down/input)) stood at 2.91.

For “GATGATTGTTCTCCCAGCTGATGAATTAATACCTTCGAGTAAACAAATTTTCCTAATCTTTCTGTTCAAGCGCCATCTAC”, the binding signal (RPM ratio (pull-down/input)) is 0.464.

As for “GATGATTGTTCTCCCAGCTGATGAATTGCTTTTCTCGAGTAAACAAATTTTCCTAATCTTTCTGTTCAAGCGCCATCTAC”, the binding signal (RPM ratio (pull-down/input)) came to 1.42.

“GATGATTGTTCTCCCAGCTGATGAATTCTAAGAATCGAGTAAACAAATTTTCCTAATCTTTCTGTTCAAGCGCCATCTAC”: the binding signal (RPM ratio (pull-down/input)) is 0.205.

In the case of “GATGATTGTTCTCCCAGCTGATGAATTTTATTGGTCGAGTAAACAAATTTTCCTAATCTTTCTGTTCAAGCGCCATCTAC”, the binding signal (RPM ratio (pull-down/input)) came to 4.94.

For the sequence “GATGATTGTTCTCCCAGCTGATGAATTTTGGGTGTCGAGTAAACAAATTTTCCTAATCTTTCTGTTCAAGCGCCATCTAC”, the binding signal (RPM ratio (pull-down/input)) turned out to be 0.805.

“GATGATTGTTCTCCCAGCTGATGAATTTAAGGACTCGAGTAAACAAATTTTCCTAATCTTTCTGTTCAAGCGCCATCTAC”: the binding signal (RPM ratio (pull-down/input)) was 0.291.

Take “GATGATTGTTCTCCCAGCTGATGAATTCAAGTGTTCGAGTAAACAAATTTTCCTAATCTTTCTGTTCAAGCGCCATCTAC”: the binding signal (RPM ratio (pull-down/input)) was determined as 0.65.

“GATGATTGTTCTCCCAGCTGATGAATTTTCCGCTTCGAGTAAACAAATTTTCCTAATCTTTCTGTTCAAGCGCCATCTAC”: the binding signal (RPM ratio (pull-down/input)) was determined as 0.322.

On to “GATGATTGTTCTCCCAGCTGATGAATTTTCGCGTTCGAGTAAACAAATTTTCCTAATCTTTCTGTTCAAGCGCCATCTAC”, for which the binding signal (RPM ratio (pull-down/input)) was 1.45.

Take “GATGATTGTTCTCCCAGCTGATGAATTCGCGCATTCGAGTAAACAAATTTTCCTAATCTTTCTGTTCAAGCGCCATCTAC”: the binding signal (RPM ratio (pull-down/input)) came to 7.06.

(Values after article PMC12820563.)
